The record followed here is PubChem BioAssay AID463173 (ICCB-Longwood Screening Facility, Harvard Medical School, 2010).

The whole screen tested about 52,000 compounds, of which about 4,300 (8.3%) were called active. Cut-off read from the data, not from the text of the source: active = survival mostly below about 52% (no sharp cut-off); inactive = mostly above about 56%. Some of the results follow.

The assay deals with DeltatarO mutant. The experiment in a line: growth inhibition of S. aureus wild type versus tarO mutant, primary screen, teichoic acid synthesis inhibitors, RN4220, OD600 (AID 463173). Conditions: OD600, 18 h, hits give low values, screened at 18.75 µg/mL (by protocol).
As to `CCOC(=O)c1c(NC(=O)c2cc3nc(-c4ccc(OC)cc4)cc(C(F)(F)F)n3n2)sc2c1CCC(C)C2` (centres undefined), the survival is inactive: 95%.
With `COC(=O)/C=C1/N/C(=N/c2nc3ccccc3s2)NC1=O`, the survival was inactive: 90%.
The figure for `Cc1cccc(Cn2c(=O)n(CC3CCC(C(=O)N4CCOCC4)CC3)c(=O)c3sccc32)c1` (centres undefined) is inactive: 69%; for `Cc1c(Cl)cccc1NC1=NCC(=O)N1C1CCCC1` it is inactive: 100%.
Regarding `Cc1cc2oc(C(=O)N(Cc3ccccc3F)C3CCS(=O)(=O)C3)c(C)c2cc1Cl` (centres undefined), the survival is inactive: 55%.
As to `Cc1ccc(C)c(N2CCN(C(=O)Cn3ncc4ccsc4c3=O)CC2)c1`, the survival was inactive: 73%.
To `CCOC(=O)c1ccc(NC(=O)c2c(N3CCCC3=O)c3cc(OC)ccc3n2C)cc1` belongs inactive: 74%.
With `OCC1=CC[N+]2(Cc3ccccc3)CCC(O)C12` (centres undefined), the survival is inactive: 84%.
The figure for `Cc1ccc(C2CC(=O)Nc3cc4c(cc32)OCCO4)cc1` (centres undefined) is inactive: 120%; for `CC1=C(C(=O)OCC2CCCCC2)C(c2cccc(Cl)c2Cl)CC(=O)N1` (centres undefined) it is inactive: 86%.
On to `CCc1ccc(Cn2c(CNS(=O)(=O)c3ccc(F)c(Cl)c3)nc3cccnc32)cc1`, for which the survival is active: 20%.
To `CC(=O)N1CCCC1c1nc2ccccc2n1Cc1ccccc1` (centres undefined) belongs inactive: 68%; to `CCOc1ccc(CCNC(=O)c2ccc(Nc3nc4ccccc4n4nnnc34)cc2)cc1OCC`, inactive: 113%; to `Cc1ccc(N2C(=O)N(CC(=O)C(C)(C)C)c3ccccc3S2(=O)=O)cc1C`, inactive: 91%.
The figure for `CCc1cccc(NC(=O)c2cc3c(=O)n(Cc4ccc(OC)cc4)ccc3nc2C)c1` is inactive: 102%; for `CCCSc1nnc2c(n1)OC(c1sccc1C)Nc1ccccc1-2` (centres undefined) it is inactive: 79%.
To `CCOc1ccc(-c2cc(C(=O)N3CCN(S(=O)(=O)c4cc(Cl)ccc4OC)CC3)[nH]n2)cc1` belongs inactive: 73%; to `CCN1/C(=C2\C(=O)N(c3ccc(Cl)cc3)N=C2C)C=Cc2ccccc21`, inactive: 68%; to `CS(=O)(=O)n1c(=O)sc2ccccc21`, inactive: 99%.
With `COc1ccc(S(=O)(=O)c2c(C)c(NS(=O)(=O)c3ccccc3)cc(C)c2O)cc1`, the survival was inactive: 67%.
To `O=C(CSc1nc2c(c(=O)[nH]1)CCC2)Nc1ccccc1C(F)(F)F` belongs inactive: 72%; to `Cc1ccccc1Nc1c(-c2ccc(Cl)s2)nc2cccc(C)n12`, inactive: 99%; to `O=C(c1ccc2c(c1)CCCC2)N1CCN(c2nc3c(F)cccc3s2)CC1`, inactive: 81%.
With `COc1cc(C(c2c(C)[nH][nH]c2=O)c2c(C)[nH][nH]c2=O)ccc1OC(=O)c1cccc(C)c1`, the survival was inactive: 75%.
To `CCOC(=O)C1CCCCN1S(=O)(=O)c1csc(C(N)=O)c1` (centres undefined) belongs inactive: 121%.
The figure for `CCCC(CCC)C(=O)Nc1cc(-c2cn3cccnc3n2)ccc1OC` is inactive: 71%; for `O=c1c(-c2ccc(Cl)cc2)c(C(F)(F)F)oc2c(CN3CCCCC3)c(O)ccc12` it is inactive: 134%.
The figure for `O=C(O)CN1C(=O)CC(Cc2ccccc2)C1=O` (centres undefined) is inactive: 100%; for `CCc1ccc(N2C(=O)CSC23C(=O)N(Cc2ccc(C)cc2)c2ccccc23)cc1` (centres undefined) it is inactive: 69%; for `CCc1cccc(NC(=O)C2CCCN(S(=O)(=O)c3cccs3)C2)c1` (centres undefined) it is inactive: 80%.
On to `CC(C)(C)c1ccc(OCCn2cc(C(=O)c3ccco3)c3ccccc32)cc1`, for which the survival was active: 35%.
The figure for `COc1ccccc1N1CCN(C(CNC(=O)C(=O)NCc2ccc(C)cc2)c2cccnc2)CC1` (centres undefined) is inactive: 65%.
The figure for `Cc1ccc(C2=CC(c3ccccc3F)n3c(nc4ccccc43)N2)cc1C` (centres undefined) is inactive: 70%; for `CN(C)c1ccc(-n2c(CCC(=O)O)ccc2-c2ccccc2)cc1` it is inactive: 60%; for `CCC1CN(Cc2ccccc2)CCC1=O` (centres undefined) it is inactive: 84%.
For `CCOC(=O)C1CCN(C(c2cccnc2)c2nnnn2Cc2ccccc2)CC1` (centres undefined), the survival was inactive: 96%.
In the case of `CCOC(=O)CN1N=NC2C(=O)N(c3ccccc3)C(=O)C21` (centres undefined), the survival is inactive: 92%.
For `COc1ccc(C2=NC(c3ccncc3)=Nc3ccc(Br)cc3N2)cc1`, the survival was inactive: 82%.
With `COc1ccc(-n2c(=O)c3c4c(sc3n(Cc3ccccc3Cl)c2=O)CCC4)c(OC)c1`, the survival is inactive: 52%.
Regarding `COCc1[nH]nc2c1C(c1ccc(F)c(F)c1)C(C#N)=C(N)O2` (centres undefined), the survival was inactive: 74%.
The figure for `OCCNc1nc2nonc2nc1NCCO` is inactive: 82%; for `Cc1cccc(OCC(=O)Nc2ccccc2OCc2cc(=O)n3ccccc3n2)c1` it is inactive: 85%.
The figure for `Cc1cccc(-c2nc3c(c(SCc4ccccc4Cl)n2)Cc2c(CO)cnc(C)c2O3)c1` is inactive: 68%; for `CCOc1ccccc1NC(=O)c1c(NC(=O)C(C)Oc2ccc(Cl)cc2)sc2c1CCCCC2` (centres undefined) it is inactive: 83%.
As to `Cc1ccc(NS(=O)(=O)c2ccc3c(c2)CC(C)N3C(=O)C2CCC2)cc1Cl` (centres undefined), the survival is inactive: 77%.
The figure for `CNC(=O)CN1C(=O)c2cccnc2Sc2ccccc21` is inactive: 109%.
The figure for `CC(C)CC1N=C2c3ccccc3N=C(SCC(=O)NCCc3ccc(Cl)cc3)N2C1=O` (centres undefined) is inactive: 95%; for `CCNC(=O)c1cnc2c(-c3ccccc3)c(C)nn2c1C` it is active: 8%.
With `CC(C)CCn1c(=O)c2sccc2n2c(CCCC(=O)NC(C)C)nnc12`, the survival is inactive: 96%.
The figure for `COc1ccc(-c2nc3cc(C)ccn3c2NC(=O)c2ccc(C)c(C)c2)cc1` is inactive: 68%.
The figure for `Cc1ccc2c(c1)-c1nc(-c3ccc4c(c3)NC(=O)CO4)cc(-c3ccc(F)cc3)c1CO2` is inactive: 100%.
The figure for `COc1ccccc1C(=O)Nc1c(C(=O)N(C)Cc2ccccc2)sc2nc(C)c(Cl)c(C)c12` is inactive: 71%; for `Cc1nc2c(C(=O)NCCc3ccc(Cl)cc3)c[nH]n2c(=O)c1Cc1ccc(Cl)cc1` it is active: -14%.
With `CCOc1ccccc1CNC(=O)C1CCCN(c2ncnc3onc(-c4ccc(F)cc4)c23)C1` (centres undefined), the survival was inactive: 78%.
To `COc1cccc(-c2cc(C(F)(F)F)nc(NCCc3ccccc3)n2)c1` belongs active: -8%; to `Cc1ccc(CN2CCc3nc(N4CCN(c5ccccc5F)CC4)ncc3C2)cc1C`, inactive: 77%.
The figure for `COc1ccccc1CCNC(=O)c1ccc2c(c1)c(C)c(C)n2Cc1ccc(Cl)cc1` is inactive: 91%.
Regarding `O=C(NCc1ccccc1Cl)C1CCCN(C(=O)c2cnn(-c3ccccc3)c2-n2cccc2)C1` (centres undefined), the survival was inactive: 72%.
Take `OCc1ccccc1CNc1ccc(F)cc1`: the survival is inactive: 98%.
The figure for `N#Cc1cnc(SCCc2ccccc2)nc1N` is inactive: 81%; for `COc1ccc(-n2c(=O)c3c(c4cc(OC)ccc4n3C)n(Cc3cc(C)ccc3C)c2=O)cc1` it is inactive: 97%; for `CCOc1ccc(C(=O)c2cn(CC(=O)Nc3ccc4c(c3)OCO4)c3ccc(OCC)cc3c2=O)cc1` it is inactive: 67%.
In the case of `O=C(Cn1ncn2nc(-c3cccs3)cc2c1=O)NCc1cccc(Br)c1`, the survival was inactive: 67%.
On to `COC(=O)c1cccnc1-n1c(=O)c2cccnc2n(CC(=O)Nc2c(C)cc(C)cc2C)c1=O`, for which the survival is inactive: 82%.
Regarding `CC(=O)N1CCN(c2nc(C3CC3)nc3sc4c(c23)CCCC4)CC1`, the survival was inactive: 77%.
To `Cc1ccc(NC(=O)CN2C(=O)COc3ccc(S(=O)(=O)N4CCCCC4)cc32)cc1N(C)C` belongs inactive: 99%.
The figure for `COc1ccc(OC)c(-c2csc(-c3c(N)c(C(=O)c4ccccc4)n4ccccc34)n2)c1` is inactive: 74%; for `CCCCOc1ccc(CNC(=O)C2COc3ccc(OC)cc3C2)cc1` (centres undefined) it is inactive: 94%.
The figure for `Cn1c(=O)n(C/C=C/c2ccccc2)c(=O)c2c1nc1n2CCN1c1ccccc1` is inactive: 105%.
Regarding `COc1ccc(S(=O)(=O)N(CC(=O)Nc2cccc(C(F)(F)F)c2)c2ccc(C)cc2)cc1`, the survival is inactive: 55%.
Take `O=C(Nc1c(-c2ccc(F)cc2)nc2ccccn12)c1ccccc1F`: the survival was inactive: 139%.
To `COc1ccccc1CNC(=O)c1ccc2c(c1)CCN2S(=O)(=O)c1ccccc1` belongs active: 43%.
The figure for `CCOC(=O)c1cccc(NC(=O)c2ccc3nc(Cc4ccccc4)oc3c2)c1` is inactive: 95%.
For `Cc1cccc(CNC(=O)c2ccc(NC(=O)N3CC(C)Sc4ccccc43)cc2)c1` (centres undefined), the survival is inactive: 57%.
The figure for `Nc1c(C(=O)c2ccc(F)cc2)sc(Nc2ccccc2F)c1S(=O)(=O)c1ccc(Br)cc1` is inactive: 67%; for `CC(C)CN(CCNC(=O)CN1C(=O)CSc2ccc(S(=O)(=O)N3CCOCC3)cc21)CC(C)C` it is inactive: 86%; for `Cc1ccc(NC(=O)Cn2c(=O)n(-c3ccccc3)c(=O)c3ccc(C(=O)NCc4ccc5c(c4)OCO5)cc32)c(C)c1` it is inactive: 112%.
`CC(CNC(=O)Cc1ccc(NC(=O)N2CCSc3ncccc32)cc1)c1ccccc1` (centres undefined): the survival was inactive: 101%.
In the case of `Cc1ccccc1NCc1cccn1-c1nnc(N2CCC(C)CC2)s1`, the survival was inactive: 87%.
Regarding `COc1ccc(-c2cn3c(n2)sc2cc(C(=O)Nc4cccc(OC)c4)ccc23)cc1`, the survival is inactive: 61%.
For the compound `COC(=O)c1scc(-c2ccc(C)cc2)c1S(=O)(=O)Nc1ccc(N(C)C)cc1`, the survival was inactive: 119%.
With `CCOC(=O)C1=C(CN2CCN(c3ccccc3F)CC2)NC(=O)NC1c1ccc(Cl)cc1` (centres undefined), the survival is inactive: 80%.
To `COc1ccccc1C(=O)NCCN1CCCC1` belongs inactive: 79%.
To `Cc1ccc(-n2c3c(c(=O)[nH]c2=O)C(NC(=O)c2ccccc2C)(C(F)(F)F)C(=O)N3)cc1` (centres undefined) belongs inactive: 72%; to `N#Cc1c2c(c(N3CCOCC3)[nH]c1=S)CCCC2`, inactive: 94%; to `Cc1cc2ccccc2n1-c1ccc(C(=O)N2CCC(C(=O)NCc3ccccc3Cl)CC2)s1`, inactive: 76%.
Consider `COc1ccccc1N1CCN(C(=O)CSc2n[nH]c(-c3ccccc3)n2)CC1`, for which the survival is inactive: 88%.
Take `CCOc1ccc(CCNC(=O)c2cc3c(s2)-c2ccccc2OC3)cc1OCC`: the survival is inactive: 67%.
Take `Cc1ccc(-c2cc(NC(=O)COc3ccc(Cl)cc3C)on2)cc1`: the survival is inactive: 78%.
